Measured values as given in the supplement of paper PMC11417369.
± gives the standard deviation of the averaged measurements. The list shows a part of the results.

tested on: PfAP2-LT AP2 domain (GST-tagged); experiment: gcPBM binding intensity (ln(normalized median fluorescence intensity)); higher = stronger DNA binding
Summary of the method: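 Using an Agilent 4 × 180k array, primer-extended double-stranded 36-bp intergenic genomic probes and negative controls were exposed for 1 h to GST-fused P. falciparum DNA-binding domains expressed in E. coli. Binding was carried out in 1× PBS with 1% milk, 0.2 mg/ml BSA, 0.5% salmon testes DNA and 0.03% Triton X-100, and protein was detected with Alexa488 anti-GST antibody and a 488 nm scan. Binding intensity is the highest Masliner-normalised natural-log median intensity across replicate spots of either probe orientation.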

Sequence | gcPBM binding intensity (ln)
ATATATTTTATATAGTGTACTTTAATTTTTTTTTTT [XGTACX_site5550] | 8.5 ± 0.49
ATTTTTTTTTTTTTTGAACACACATTATTAATTTTT [CACACA_site7990] | 8.8 ± 0.61
TTATTTACCTATTATAGTACATATAATTAATATAAT [XGTACX_site5724] | 8.47 ± 0.4
ATCTTTCGTACATGTACACACAGAAAAAAAAAAAAA [CACACA_site2502] | 8.94 ± 0.41
GTTCCCATAAATAAATGTACATATTATATATATATA [XGTACX_site3242] | 8.85 ± 0.29
GTGTAATCATATAAGGGTACAAAAAATGTCTAACAA [XGTACX_site8122] | 8.86 ± 0.52
TTACTAAACTTATATGTACACACATATAACATTAAT [CACACA_site8710] | 9.23 ± 0.46
GTAAAAATTTCATATTCACACACAAAAAAAAAAAAT [CACACA_site8457] | 9.28 ± 0.42
TAAAAAAAAAAAAAAAGTACCCATACTATATTACAT [XGTACX_site946] | 8.51 ± 0.45
AGTAGTCTGGAGAAGAGTACATAGTATCTGATAACC [XGTACX_site2044] | 8.89 ± 0.56
AAGAATTTTACAAAATGTACTTATGTTTTGTTTTAC [XGTACX_site5632] | 8.84 ± 0.5
AATCCACAAAGACACACACACACATATATATATATA [CACACA_site1269] | 10.2 ± 0.23
TAATTAATATATTTTTGTACTTATATATTTGCGTAT [XGTACX_site340] | 8.88 ± 0.47
AAAATTCTTCGGGGGAGTACAAGGATATTCTACGTT [XGTACX_site3974] | 9.24 ± 0.29
ATTTTTGATTTTAAAAGTACATAAGTATACTATTTA [XGTACX_site7162] | 8.45 ± 0.36
TTTTGTAATTTTGTATGTACACATTAAAGTAATATG [XGTACX_site2401] | 8.69 ± 0.48
TTATAATATATATGTGGTACTTATTTATTTATTTAT [XGTACX_site7572] | 8.72 ± 0.49
ATAAATAAATTTATACGTACACATAATATATATATA [XGTACX_site4634] | 8.8 ± 0.38
AAAAATAAAATGATGGTGCACATAAAGTATGGTTAC | 9.18 ± 0.42

Sequence | gcPBM binding intensity (ln)
TTGTTCTATAATTATACATGCATTAACAGAGTAAAA [TGCATGCA_site909] | 8.49 ± 0.37
ATATATATATATATATGTACATATATTTTCTTTTTG [XGTACX_site6017] | 9.54 ± 0.6
TTTTTTTTTTTTTAATGTACAAATATGGTGACAAAA [XGTACX_site8709] | 8.19 ± 0.4
AAAAACGATTAATGTGTACACACATAGTTATAAACA [CACACA_site8659] | 9.27 ± 0.38
AGGATAACATACAAAAGTACATAAAACTAAAAAAAC [XGTACX_site26] | 9.12 ± 0.49
AAGAAAATATAACAAAGTAAAAACATATTATATATA [TGCATGCA_negctrl_site248] | 8.74 ± 0.38
TATATATATTTTTGAAGTACTTATTACACTAGCATT [XGTACX_site8965] | 8.75 ± 0.41
TATATTTTGTTTTTGTGTACATATTGGTAGTTATTT [XGTACX_site7659] | 9.01 ± 0.52
AATGTGGTATTTACAAAAAGGCTTTATACTTAAAAA [XGTACX_negctrl_site566] | 8.45 ± 0.51
TGATTATCCTATATATATTTCATAATGGAAAAAAAT [TGCATGCA_negctrl_site444] | 8.35 ± 0.45
AAAAATAGTCTTCTTGCACTTTTTAATTTATTTTAA [CACACA_negctrl_site1322] | 8.36 ± 0.45
CTTTTCATCTTCTTAACACACAAAAAAAAAAAAAAA [CACACA_site3886] | 8.33 ± 0.41
TATATTTATATACCAACACACATACATATTTATATA [CACACA_site6931] | 8.92 ± 0.34
AAAATTCAGCGAAAGGGTACATATGTGTAAGGGTAA [XGTACX_site8205] | 9.22 ± 0.45
CTATTATATCAGTAGACACACATATAACATTTATAT [CACACA_site141] | 8.95 ± 0.39
AATGTGCTCGCTATTACACACTCATTGGGATAAAAT [CACACA_site8627] | 8.92 ± 0.34
AGTAACAATTATTATGCATGTACAAATAATCATTTT [TGCATGCA_site867] | 8.85 ± 0.35
ATCTTATATTATCACACACACACGCACAAAACAGAA [CACACA_site1463] | 9.91 ± 0.26
ATATTATATAGAAACACACATACACATGTAAATATA [CACACA_site2037] | 9.19 ± 0.39

Sequence | gcPBM binding intensity (ln)
TTTATTAAACTTGACACACACACACCCACATATATA [CACACA_site760] | 9.8 ± 0.28
ATGGATTTTACCATAGCACACATATATGAATATTTT [CACACA_site8535] | 8.85 ± 0.33
TAATTATTTCGTATATTTGAATGGTACATGCTTATA [CACACA_negctrl_site1178] | 8.59 ± 0.38
ATATAGAAAATGCATACACACTTTATATATATATTT [CACACA_site4658] | 8.91 ± 0.4
CCTTTATACATTTTCTGTACTGATATATATTAAAAA [XGTACX_site8467] | 8.6 ± 0.4
TTGTGTTCTTATTTTTACACCGAAAAATATTAAAAG [CACACA_negctrl_site535] | 8.43 ± 0.36
GTATGAAAAAAAATATGTACACATATATATTTGGTA [XGTACX_site6309] | 8.89 ± 0.38
ATATATATATATACAACACACATGTAATATATAAAT [CACACA_site3294] | 9.28 ± 0.16
TACTGATCCACATTTATACACACCTCGGTTTGTAGA [CACACA_site417] | 8.91 ± 0.35
TATAGATTCTTTTAATGTACATGTCTTTTCATTTCC [XGTACX_site8348] | 8.79 ± 0.49
ATATAAAAAAAAAAAAAAAAATATATATATATATAT [GTGCAC_negctrl_site251] | 9.38 ± 0.28
GATATACTGTCAATTCTACACACCATAGGGGGAGCA [CACACA_site8562] | 9.56 ± 0.19
TTGGTTTGAAAGAAAGAAATTATTAAAAAGGAAATA [CACACA_negctrl_site26] | 8.19 ± 0.57
ATCATAACACCTCCACACAAATAAATATAACATATA [XGTACX_negctrl_site269] | 9.09 ± 0.34
ATGAGTGCACAAATATATATATATATATATATATAT [CACACA_negctrl_site404] | 10.2 ± 0.26
CTTTTTATTAAATATGCATGTGTATCAACAGTGAAT [TGCATGCA_site447] | 8.65 ± 0.32
GTTATACGCATATATACACACATATGTAAATATATA [CACACA_site3280] | 9.09 ± 0.3
TAAAAAAAATAGCATACACACATATATACCTATATA [CACACA_site4535] | 8.94 ± 0.38
